Out of some 420,000 compounds screened, about 64,000 (15%) were called active. Inconclusive results, whose numbers are uncertain, are shown with a selection of clear calls. The call rests on the fitted dose curve; in most records, active means well fitted inhibition curve with a large enough effect; inconclusive means small, poorly fitted or top-dose-only effect; inactive means flat fitted curve, though single readings scatter. No potency is given beside an inconclusive call; the fits are too rough.
Experiment: qHTS for Inhibitors of human tyrosyl-DNA phosphodiesterase 1 (TDP1): qHTS in cells in absence of CPT; further: nearly all actives have a fitted effect of over 55% in size
Conditions: DT40 Tdp1-/- hTDP1 cells, no CPT, ATP luminescence, 48 h; series mostly up to 46.2 µM
Method in brief: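 Chicken DT40 Tdp1-/- cells stably complemented with human TDP1 were seeded at 400 cells/well with DMSO in place of 20 nM camptothecin. After compound pinning, cells grew at least 48 hr at 37 °C; viability read by CellTiter-Glo luminescence.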
Potency means the concentration at half of the fitted maximal effect; tags describe the fitted curve by direction and shape.

| Compound | Potency |
| --- | --- |
| CCOC(=O)c1ccc(NC(=O)c2nc(SCc3ccc(F)cc3)ncc2Cl)cc1 | inconclusive [inhibitor, single point] |
| CCCCOC(=O)c1ccc(NC(=O)Nc2ccc(OC)c(OC)c2)cc1 | inconclusive [inhibitor, single point] |
| Cc1nn(C)cc1C(=O)Nc1cc(Oc2ccc(Cl)cc2)cc([N+](=O)[O-])c1 | inconclusive [inhibitor, partial curve] |
| Cn1ccc(C(=O)OCC(=O)Nc2ccccc2Cl)n1 | inactive |
| CCOc1ccc(/C=N/NC(=O)C(O)c2ccccc2)c(O)c1 (configuration not stated) | inconclusive [inhibitor, single point] |
| COC(=O)c1c(NC(=O)CN2CCN(c3ccccc3)CC2)c2c(C)cccc2n1C | inconclusive [inhibitor, partial curve, poor fit] |
| CC(C)(C)OC(=O)N1CCC[C@H]1C(=O)Nc1ccc(S(=O)(=O)C(F)F)cc1 | inconclusive [inhibitor, single point] |
| Cc1ccc(CC(=O)NCc2nc(-c3ccccc3)no2)cc1 | inactive |
| C=CCNc1cc(N2CCCC2)ccc1[N+](=O)[O-] | inconclusive [inhibitor, partial curve, poor fit] |
| CCN(CC(=O)Nc1cc(Cl)ccc1C)C(=O)CCc1nc2ccccc2c(=O)[nH]1 | inconclusive [inhibitor, partial curve] |
| CC(OC(=O)c1ccc2ncsc2c1)C(=O)Nc1cccc(Cl)c1 (configuration not stated) | inconclusive [inhibitor, single point] |
| O=C(NCCc1ccccc1Cl)c1cc2ccccn2n1 | inconclusive [inhibitor, single point] |
| CCOC(=O)Cc1csc(NC(=O)COc2ccc(C)cc2)n1 | inconclusive [inhibitor, partial curve] |
| CCOC(=O)N1CCC(c2cc(=O)n(-c3ccccc3)[nH]2)CC1 | inactive |
| CC(C)(C)NC(=O)c1cc(-c2ccc3c(c2)OCO3)nc2ccccc12 | inactive |
| COc1ccc2cc3cc(C(=O)NCc4ccco4)oc3nc2c1 | inconclusive [inhibitor, single point] |
| CCC/C(O)=C1\C(=O)CC(C)(C)CC1=Nc1cccc([N+](=O)[O-])c1 | inconclusive [inhibitor, partial curve] |
| CCc1ccc(N(CC(=O)NCc2ccc3c(c2)OCO3)C(=O)c2csnn2)cc1 | inactive |
| CCCCn1c(=O)c2oc3ccccc3c2n(Cc2ccc(C)cc2)c1=O | inconclusive [inhibitor, full curve, poor fit] |
| CCN(C(=O)COC(=O)c1c(C)c(-c2ccccc2)nc2ccccc12)C1CCS(=O)(=O)C1 (configuration not stated) | inconclusive [inhibitor, partial curve] |
| O=C(Nc1ccc2c(c1)OCCO2)C(c1ccnc2ccccc12)N1CCN(c2ccc(C(F)(F)F)cn2)CC1 (configuration not stated) | inconclusive [inhibitor, single point] |

| Compound | Potency |
| --- | --- |
| COC(=O)Nc1ccc(S(=O)(=O)N2c3ccccc3CCC2C)cc1 (configuration not stated) | active: 2.59 µM |
| CCc1ccc(NC(=S)Nn2cnnc2)cc1 | inactive |
| COc1ccc(C(C)(NC(C)=O)c2nc(-c3cccc(NC(C)=O)c3)cs2)cc1 (configuration not stated) | inconclusive [inhibitor, single point] |
| CC(=O)c1ccc(N2CCN(C(=O)c3ccc(Br)cc3)CC2)c(F)c1 | active: 13 µM |
| Cc1cccc(N2CCN(C(=O)CCCn3c(=S)[nH]c4cc5c(cc4c3=O)OCO5)CC2)c1C | inconclusive [inhibitor, single point] |
| C[C@@H](NC(=O)[C@H]1O[C@@H](n2cnc3c(N)ncnc32)[C@H](O)[C@@H]1O)c1cccc2ccccc12 | inactive |
| O=C(NCc1ccc(F)cc1)C1CCCN(C(=O)Nc2ccc(F)cc2)C1 (configuration not stated) | inactive |
| Cc1nnc(SC2CC(=O)N(c3ccccc3)C2=O)s1 (configuration not stated) | active: 20.6 µM |
| COc1ccc(-c2cc(C(=O)N3CCCCC3)c3ccccc3n2)cc1 | inconclusive [inhibitor, single point] |
| COc1ccc(C(=O)C2CCN(CC(=O)Nc3ccccc3F)CC2)cc1 | inconclusive [inhibitor, single point] |
| Cn1c(=O)c2sccc2n(Cc2ccc(Br)cc2)c1=O | inconclusive [inhibitor, single point] |
| N#Cc1cccc(NC(=O)CNc2cc(S(=O)(=O)N3CCOCC3)ccc2N2CCCC2)c1 | active: 23.1 µM |
| O=C(CSc1nc2ccccc2c(=O)n1CC1CCCO1)NCc1ccc2c(c1)OCO2 (configuration not stated) | inconclusive [inhibitor, single point] |
| CCOc1ccc(N(Cc2cc3cc(OC)ccc3[nH]c2=O)S(C)(=O)=O)cc1 | inconclusive [inhibitor, partial curve, poor fit] |
| CC(C)(C)NC(=O)c1ccccc1-c1nc(-c2ccccc2Cl)no1 | inconclusive [inhibitor, partial curve] |
| CCC(CO)Oc1cc(NCc2ccc(Cl)cc2Cl)c2ncn(C(C)C)c2c1 (configuration not stated) | inconclusive [inhibitor, single point] |
| COc1cc(C(=O)NCCc2cn3ccc(C)cc3n2)cc(OC)c1OC | inconclusive [inhibitor, single point] |
| COc1ccc(OC)c(NS(=O)(=O)c2ccc3[nH]c(=O)[nH]c3c2)c1 | inconclusive [inhibitor, partial curve] |
| O=C(O)c1nn(CCOc2ccccc2F)c(=O)c2ccccc12 | inconclusive [inhibitor, full curve, poor fit] |
| O=C(Cn1cc(S(=O)(=O)Cc2ccccc2F)c2ccccc21)Nc1ccc(F)c(Cl)c1 | inconclusive [inhibitor, single point] |
| CC(C)Oc1ccc(C(=O)NC(=S)Nc2ccc(CN3CCOCC3)cc2)cc1 | active: 18.4 µM |
